Laboratory results from PMC10612037 (Viruses, 2023).
Counter-ions that a name gives are not always drawn. Like-named read-outs stand apart in the source and are kept apart here.

Experiments:
HIV-1 RT mutants = conditions: cited from earlier work
[1] = system: HIV-1 xxLAI (wildtype, K65R, M184V); type: cell-based
[2] = system: HIV-1 isolates B, C, CRF_AE, CRF_AG; type: cell-based; conditions: for resistance of mutant: K65R/M184V in clinical isolates
HIV-1 RT = system: HIV-1 RT; set-up: method as in ref 20 = [20]; conditions: M184V RT; cited from earlier work
SIV = system: SIV; set-up: method as in ref 12 = [12]; conditions: SIV with M184V mutation present in ISL-treated rhesus macaques; cited from earlier work
HIV-1 NL4-3 = test: Dose-response assay in TZM-GFP cells, NL4-3 molecular clones with RT mutations
[3] = system: HIV-1 reverse transcriptase (endogenous RT in virions); test: Endogenous reverse transcriptase assay; type: biochemical; conditions: M184V virions
[4] = K65R virus, TDF:ISL 1:1 combination
[5] = K65R virus, TDF:ISL 10:1 combination
[6] = K65R virus, TDF:ISL 100:1 combination
[7] = M184V virus, TDF:ISL 1:1 combination
[8] = Wildtype virus, TDF:ISL 1:1 combination
[9] = Wildtype virus, TDF:ISL 10:1 combination
[10] = Wildtype virus, TDF:ISL 100:1 combination (initial combination only)

| SMILES | fold resistance (HIV-1 RT mutants; M184V/I) | final drug concentration the virus escaped from [1, 4] | final drug concentration the virus escaped from [1, 5] | final drug concentration the virus escaped from [1, 6] | final drug concentration the virus escaped from [1, 7] | final drug concentration the virus escaped from [1, 8] | final drug concentration the virus escaped from [1, 9] | final drug concentration the virus escaped from [1, 10] | fold resistance relative to respective WT (EC50) ([2]; CRF_AG K65R/M184V) | resistance of mutant [2] | fold resistance relative to respective WT (EC50) ([2]; isolate B K65R/M184V) | fold resistance relative to respective WT (EC50) ([2]; isolate C K65R/M184V) | fold resistance relative to WT (EC50 fold change) (HIV-1 NL4-3; NL4-3 K65R/M184V) | also measured |
| --- | --- | --- | --- | --- | --- | --- | --- | --- | --- | --- | --- | --- | --- | --- |
| Nc1ccn([C@@H]2CS[C@H](CO)O2)c(=O)n1 [3TC, lamivudine] | > 100 fold | – | – | – | – | – | – | – | – | – | – | – | – | – |
| Nc1nc(=O)n([C@@H]2CS[C@H](CO)O2)cc1F [FTC, emtricitabine] | > 100 fold | – | – | – | – | – | – | – | – | – | – | – | – | – |
| C#C[C@]1(CO)O[C@@H](n2cnc3c(N)nc(F)nc32)C[C@@H]1O [ISL, 4′-ethynyl-2-fluoro-2′-deoxyadensine] | ~ 8 fold | 7.2 nM | 7.2 nM | 3.6 nM | 130 nM | 14.4 nM | 14.4 nM | 3.6 nM | 4.5 fold | mild resistance | 1.4 fold | 3 fold | 3 fold | fold resistance relative to wildtype (EC50) ([2]; CRF_AE K65R/M184V with Ser68): 3.5 fold; fold resistance relative to respective WT (EC50) ([2]; CRF_AE M184V (native Gly68)): 3 fold; fold resistance relative to wildtype (EC50) ([2]; CRF_AE M184V with Ser68): 3.5 fold; fold resistance relative to respective WT (EC50) ([2]; CRF_AG M184V): 8 fold; fold resistance relative to respective WT (EC50) ([2]; isolate B M184V): 3.5 fold; fold resistance relative to respective WT (EC50) ([2]; isolate C M184V): 9.5 fold; fold resistance relative to wildtype RT (HIV-1 RT): 8 fold; fold resistance (HIV-1 RT mutants; A114S/M184V mutant): 25 fold; viral suppression (SIV): fully suppressed; fold resistance relative to WT (EC50 fold change) (HIV-1 NL4-3; NL4-3 M184V): 7 fold; fold resistance relative to WT (EC50 fold change) (HIV-1 NL4-3; NL4-3 S68G/M184V): 6 fold; fold resistance relative to WT (EC50 fold change) (HIV-1 NL4-3; NL4-3 S68N/M184V): 12 fold |
| C#C[C@]1(COP(=O)(O)OP(=O)(O)OP(=O)(O)O)O[C@@H](n2cnc3c(N)nc(F)nc32)C[C@@H]1O [ISL-TP] | – | – | – | – | – | – | – | – | – | – | – | – | – | resistance phenotype (IC50 fold change from WT) [3]: conferred resistance |
| CC(C)OC(=O)OCOP(=O)(CO[C@H](C)Cn1cnc2c(N)ncnc21)OCOC(=O)OC(C)C [TDF, Tenofovir disoproxil fumarate] | – | 7.2 nM | 72 nM | 360 nM | 130 nM | 14.4 nM | 144 nM | 360 nM | 1.5 fold | mild resistance | 3 fold | 2.7 fold | 2 fold | fold resistance relative to respective WT (EC50) ([2]; CRF_AE K65R/M184V (native Gly68)): 5.2 fold; susceptibility of mutant relative to WT ([2]; M184V, regardless of the isolate): as susceptible to TDF as WT; fold sensitivity (HIV-1 RT mutants; A114S/M184V mutant): 40 fold; fold more sensitive than WT (EC50) (HIV-1 NL4-3; NL4-3 M184V): 2 fold; susceptibility of mutant (HIV-1 NL4-3; NL4-3 S68G/M184V): susceptible; susceptibility of mutant (HIV-1 NL4-3; NL4-3 S68N/M184V): susceptible |
